Laboratory results as given in PubChem BioAssay AID588795 (National Center for Advancing Translational Sciences (NCATS), 2011).
About 1,400 (0.36%) of roughly 390,000 compounds were called active. This list was built around the results that the source calls inconclusive (neither active nor inactive); the mix of calls is not that of the screen. Calls follow the shape of the dose curve; as a rule, active = well fitted inhibition curve with a large enough effect; inconclusive = small, poorly fitted or top-dose-only effect; inactive = no such curve, though single readings can be large or run the other way. Where the call is inconclusive, the potency comes from a doubtful curve fit.

Each molecule was assayed against Flap endonuclease 1 (Homo sapiens) (UniProt P39748) (assay: qHTS Assay for the Inhibitors of Human Flap endonuclease 1 (FEN1).). Conditions: Recombinant FEN1 flap cleavage, fluorescence, 15 min; series mostly up to 114 µM; activity change, negative = inhibition: at the top concentration.
How it was run: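 FEN1 at 10 nM, compound pretreatment for 15 min (room temperature), 50 nM final substrate to initiate; endpoint reads at 0 and 15 min; DMSO-only plates used as vehicle background.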
% is scaled to controls: 0 for no effect and ±100 for the full control effect; potency is read from the fitted curve at half-maximal effect; tags tell the direction and shape of the fitted curve.
Also: nearly all actives have a fitted effect of over 65% in size.

Sequence of UniProt P39748 (P39748 whole entry, looked up): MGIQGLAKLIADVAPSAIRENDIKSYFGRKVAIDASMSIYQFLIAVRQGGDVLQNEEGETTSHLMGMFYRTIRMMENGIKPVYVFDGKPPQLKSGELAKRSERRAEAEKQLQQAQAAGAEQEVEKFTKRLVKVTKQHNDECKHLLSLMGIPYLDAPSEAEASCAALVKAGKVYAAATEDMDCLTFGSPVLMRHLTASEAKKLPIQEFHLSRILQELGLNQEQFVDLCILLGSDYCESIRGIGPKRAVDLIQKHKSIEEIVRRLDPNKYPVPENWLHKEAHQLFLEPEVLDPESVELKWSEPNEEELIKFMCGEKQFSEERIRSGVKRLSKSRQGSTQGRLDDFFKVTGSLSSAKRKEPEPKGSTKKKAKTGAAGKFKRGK

Row | SMILES | Potency | activity change, negative = inhibition
1 | O=c1[nH]c(=O)c2nc3c4ccccc4c4ccccc4c3nc2[nH]1 | inconclusive: 56.2 µM [inhibitor, partial curve, poor fit] | –
2 | C(=N\NC1=Nc2cccc3cccc1c23)/c1cccnc1 | inconclusive: 39.8 µM [inhibitor, partial curve] | –
3 | CC(Sc1nnc(Nc2ccccc2)s1)C(=O)Nc1nc(-c2ccccc2)cs1 (configuration not stated) | inconclusive: 79.4 µM [inhibitor, partial curve, poor fit] | –
4 | CC(C)(C)c1ccc(Oc2ccc(NC(=O)c3cccs3)cn2)cc1 | inconclusive: 39.8 µM [inhibitor, partial curve, poor fit] | –
5 | COC(=O)CCCC1=CC2=CC(=O)C(C)(OC(=O)CCc3ccccc3)C(=O)C2=CO1 (configuration not stated) | inconclusive: 39.8 µM [inhibitor, partial curve] | –
6 | CCOC(=O)N1CCC(n2c(SCC(=O)OCc3ccccc3)nc3ccsc3c2=O)CC1 | inconclusive: 79.4 µM [inhibitor, partial curve, poor fit] | –
7 | CCc1nc2ccc(C(=O)NCCc3ccc(OC)c(OC)c3)cc2nc1CC | inactive | –
8 | Cc1cccc(/C=C2/Sc3ccc(C(=O)NCCN4CCCC4)cc3NC2=O)c1 | inconclusive: 31.6 µM [inhibitor, partial curve] | –
9 | CCOc1cc(C2Nc3ccccc3C(=O)N2Cc2ccco2)ccc1O (configuration not stated) | – | inactive: -5.33%
10 | COc1ccc(-c2nnc3ccc(SC)nn23)cc1 | inconclusive: 89.1 µM [inhibitor, partial curve, poor fit] | –
11 | COc1ccc(C(=O)Nc2ccc(NC(=O)c3cccs3)cc2)cc1Cl | inconclusive: 100 µM [inhibitor, single point] | –
12 | O=C(COc1cccc2cccnc12)N/N=C/c1cccn1-c1ccc(F)cc1 | inconclusive: 50.1 µM [inhibitor, partial curve, poor fit] | –
13 | CCOC(=O)c1cc2c(=O)n3ccccc3nc2n(CC2CCCO2)c1=NC(=O)c1ccccc1OCC (configuration not stated) | – | inactive: -4.99%
14 | O=[N+]([O-])c1cc(Cl)c(O)c2ncccc12 | inconclusive: 15.8 µM [inhibitor, partial curve, poor fit] | –
15 | COc1ccc(-c2nn(C)c3sc(C(=O)Nc4cc(OC)c(OC)c(OC)c4)cc23)cc1OC | active: 10 µM | –
16 | O=C(O)c1ccccc1N/N=C/c1cc(Br)cc(Br)c1O | inconclusive: 70.8 µM [inhibitor, partial curve, poor fit] | –
17 | Cc1nc(N2CCCCC2)c2ccsc2n1 | – | inactive: -3.79%
18 | COn1c(-n2nc(C)cc2C)nc2ccccc2c1=O | inconclusive: 50.1 µM [inhibitor, partial curve, poor fit] | –
19 | Cc1[nH]cnc1C(=O)N/N=C/c1c(Cl)cccc1Cl | – | inactive: -11.6%
20 | O=C(CN1CCN(CCN2C(=O)c3cccc4cccc(c34)C2=O)CC1)c1ccc(F)cc1 | inconclusive: 44.7 µM [inhibitor, partial curve] | –
21 | CCc1ccc(N2CC(C)Cn3c2nc2c3c(=O)n(CC(=O)O)c(=O)n2C)cc1 (configuration not stated) | inconclusive: 50.1 µM [inhibitor, partial curve, poor fit] | –

Row | SMILES | Potency | activity change, negative = inhibition
22 | NS(=O)(=O)c1ccc(NS(=O)(=O)c2ccc(NC(=O)c3ccc(-c4ccccc4)cc3)cc2)cc1 | inconclusive: 44.7 µM [inhibitor, partial curve, poor fit] | –
23 | Cc1ccc(C(=O)OCC(=O)Nc2cccc(Cl)c2C)c(O)c1 | – | inactive: -11.4%
24 | Nc1ccc2c(O)cc(S(=O)(=O)O)cc2c1 | active: 8.91 µM | –
25 | Cc1cccc(CNC(=O)c2ccc(Cn3c(SCc4cccc(F)c4)nc4cccnc43)cc2)c1 | inconclusive: 56.2 µM [inhibitor, partial curve, poor fit] | –
26 | CCOc1ccc(NC(=O)CN(C)S(=O)(=O)c2ccc(-c3ccc(=O)[nH]n3)s2)cc1 | inconclusive: 79.4 µM [inhibitor, partial curve] | –
27 | CCN(CC)CCN(C(=O)c1ccc2c(c1)OCCO2)c1nc2cc3c(cc2s1)OCO3 | inconclusive: 89.1 µM [inhibitor, partial curve, poor fit] | –
28 | COc1ccc(-c2csc(NC3OC(=O)c4ccccc43)n2)cc1 (configuration not stated) | inconclusive: 89.1 µM [inhibitor, partial curve, poor fit] | –
29 | CCc1cc2c(=O)c(-c3nc4ccccc4n3C)coc2c(CN2CCCCC2C)c1O (configuration not stated) | inconclusive: 79.4 µM [inhibitor, single point] | –
30 | CCN(C(=O)c1cc2c(=O)n3cccc(C)c3nc2s1)c1ccc(C)c(C)c1 | inconclusive: 89.1 µM [inhibitor, partial curve] | –
31 | CCCCCc1c2c(cc(O)c1C(=O)O)OC(=O)c1cc(C(=O)CCCC)c(OC)cc1O2 | inconclusive: 56.2 µM [inhibitor, partial curve, poor fit] | –
32 | C/C=C\C=C\C(=O)N1CC2(CC(c3cccc(NC(=O)CC)c3)=NO2)C[C@H]1C(N)=O (some centres not stated) | inconclusive: 79.4 µM [inhibitor, partial curve, poor fit] | –
33 | CCOC(=O)N1CCc2c(sc3c2C(=O)NC(c2cc(OC)c(O)c(OC)c2)N3)C1 (configuration not stated) | inconclusive: 79.4 µM [inhibitor, single point] | –
34 | O=C1c2cccc3cccc(c23)C(=O)N1CCCN1CCN(c2ccc(F)cc2)CC1 | inconclusive: 25.1 µM [inhibitor, full curve, poor fit] | –
35 | CCCCCCCC(=O)NC(Nc1ccc(S(N)(=O)=O)cc1)C(Cl)(Cl)Cl (configuration not stated) | inconclusive: 89.1 µM [inhibitor, partial curve, poor fit] | –
36 | O=C1CC(c2ccco2)CC2=C1C(c1cccnc1)n1nc(C(F)(F)F)nc1N2 (configuration not stated) | – | inactive: -30.6%
37 | O=[N+]([O-])c1cc(F)c2cccnc2c1O | inconclusive: 15.8 µM [inhibitor, partial curve, poor fit] | –
38 | Clc1ccc(-c2nc(NCCCN3CCOCC3)c3ccccc3n2)cc1 | inconclusive: 56.2 µM [inhibitor, partial curve, poor fit] | –
39 | COc1ccc(Cl)cc1NC(=O)Cn1c(=O)n(CCC(=O)NCc2ccc3c(c2)OCO3)c(=O)c2ccccc21 | – | inactive: 7.43%
40 | O=C(Cc1ccc(Br)cc1)Nc1ncc([N+](=O)[O-])s1 | – | inactive: -20.4%
41 | C#CCOCCOCCOCCNc1nc(N2CCN(C(=O)[C@H](Cc3ccc(O)cc3)n3cc([C@@H](N)C(C)CC)nn3)CC2)nc(N2CCN(C(=O)[C@H](Cc3cc4ccccc4[nH]3)n3cc([C@@H](N)CC(C)C)nn3)CC2)n1 (some centres not stated) | – | inactive: -11%
42 | O=C(Nc1ccc(Cl)c(-c2nc3cc(Cl)ccc3o2)c1)c1cc([N+](=O)[O-])ccc1N1CCOCC1 | – | inactive: 0.579%

Row | SMILES | Potency | activity change, negative = inhibition
43 | Cc1cc(-c2ccc(C)c(S(=O)(=O)NCc3ccc(OC(C)C)cc3)c2)on1 | inconclusive: 79.4 µM [inhibitor, partial curve, poor fit] | –
44 | C=CCN1C(=O)/C(=C/c2ccc(O)c(OC)c2)S/C1=N/c1nccs1 | inconclusive: 44.7 µM [inhibitor, partial curve] | –
45 | CC(C)CCN1C(=O)c2cccc3c(N)ccc(c23)C1=O | inconclusive: 89.1 µM [inhibitor, single point] | –
46 | COCCN1C(=O)C(O)=C(C(=O)c2ccco2)C1c1cccc(Oc2ccccc2)c1 (configuration not stated) | inconclusive: 56.2 µM [inhibitor, partial curve, poor fit] | –
47 | Oc1ccc(C=Nc2cccc3ccccc23)c(O)c1 | inconclusive: 79.4 µM [inhibitor, partial curve, poor fit] | –
48 | Cn1c2ccccc2c(=O)c2cc(NCCCN3CCOCC3)ccc21 | inconclusive: 17.8 µM [inhibitor, full curve] | –
49 | COc1ccc(N2CCN(C(=O)CN3C(=O)CSc4c3c(C)nn4-c3ccccc3)CC2)cc1 | – | inactive: 11.5%
50 | COc1ccc(-c2noc(CCCC(=O)N3CCN(c4cc(C)ccc4C)CC3)n2)cc1 | inconclusive: 89.1 µM [inhibitor, partial curve, poor fit] | –
51 | COc1ccc(OC)c(CCNC(=O)c2cc3c(=O)oc4ccc(C)cc4c3s2)c1 | – | inactive: -1.06%
52 | O=C(OCc1csc(-c2ccccc2)n1)c1cccs1 | inconclusive: 89.1 µM [inhibitor, partial curve, poor fit] | –
53 | O=C(O)CCNC(=O)c1ccc(NC(=O)Cc2ccc(Cl)cc2)cc1 | – | inactive: 0.819%
54 | C[N+](C)(CCCCCI)c1ccc(/C=C/c2nc3ccccc3s2)cc1 | inconclusive: 50.1 µM [inhibitor, partial curve, poor fit] | –
55 | COc1cc(/C=C(\C#N)C(=O)Nc2cccc(C(=O)O)c2)ccc1OCc1ccc(Cl)cc1 | inconclusive: 89.1 µM [inhibitor, single point] | –
56 | COc1cc(C(=S)N2CCN(c3ccccc3Cl)CC2)cc(O)c1O | inconclusive: 11.2 µM [inhibitor, full curve, poor fit] | –
57 | Clc1ccc(/C=C/c2ccncc2)cc1Cl | – | inactive: -2.98%
58 | N#Cc1c2c(c(NCCCN3CCOCC3)n3c1nc1ccccc13)CCC2 | inconclusive: 50.1 µM [inhibitor, partial curve] | –
59 | COc1cc(NS(=O)(=O)c2ccc(Nc3nc(-c4cccc([N+](=O)[O-])c4)cs3)cc2)nc(OC)n1 | inconclusive: 79.4 µM [inhibitor, partial curve] | –
60 | CCc1ccc(NC(=O)c2cc3nc(-c4ccc(C)cc4)cc(C(F)(F)F)n3n2)cc1 | – | inactive: -1.42%
61 | CCOc1ccc(-c2cn3c(n2)sc2cc(C(=O)NCCCc4ccccc4)ccc23)cc1 | – | inactive: -1.97%
62 | CCC(=O)OCCNc1cc(Sc2nccn2C)c2nonc2c1[N+](=O)[O-] | inconclusive: 31.6 µM [inhibitor, partial curve, poor fit] | –
